Results are given in words; binding and its absence hold for the method and conditions named. Binding seen in cells or lysates may run through a third protein. Sequences can lack the tags named with a protein.
Columns and labels:
SUVR2-Flag (Arabidopsis) [1] = molecular target: T1, SUVR2-Flag (Arabidopsis) (UniProt Q9FNC7); assay: co-IP; protein extracts of Arabidopsis plants harboring two tagged proteins; anti-c-Myc agarose, anti-Flag M1 agarose or anti-AGO4 conjugated agarose; western blotting
T1 sequence: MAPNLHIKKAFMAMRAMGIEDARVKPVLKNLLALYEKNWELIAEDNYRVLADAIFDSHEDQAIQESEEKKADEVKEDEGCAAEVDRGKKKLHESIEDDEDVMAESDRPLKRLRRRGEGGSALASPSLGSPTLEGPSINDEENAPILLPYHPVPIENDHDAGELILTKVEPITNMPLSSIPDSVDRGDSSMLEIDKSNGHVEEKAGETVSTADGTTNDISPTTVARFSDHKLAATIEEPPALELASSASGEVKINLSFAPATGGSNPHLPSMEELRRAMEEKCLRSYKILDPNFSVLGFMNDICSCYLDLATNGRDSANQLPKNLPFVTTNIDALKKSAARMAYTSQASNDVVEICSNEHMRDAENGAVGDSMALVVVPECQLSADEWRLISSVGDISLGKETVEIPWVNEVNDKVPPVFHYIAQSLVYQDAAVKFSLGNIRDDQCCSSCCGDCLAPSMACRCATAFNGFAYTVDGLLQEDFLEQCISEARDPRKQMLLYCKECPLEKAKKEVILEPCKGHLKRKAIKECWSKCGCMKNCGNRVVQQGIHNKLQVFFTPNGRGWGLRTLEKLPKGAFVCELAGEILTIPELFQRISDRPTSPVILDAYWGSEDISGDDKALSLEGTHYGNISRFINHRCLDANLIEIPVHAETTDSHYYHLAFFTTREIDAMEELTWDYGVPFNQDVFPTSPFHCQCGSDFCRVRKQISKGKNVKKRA

Amino acid sequences for entries named in this document (tags omitted).
UniProt Q94A79: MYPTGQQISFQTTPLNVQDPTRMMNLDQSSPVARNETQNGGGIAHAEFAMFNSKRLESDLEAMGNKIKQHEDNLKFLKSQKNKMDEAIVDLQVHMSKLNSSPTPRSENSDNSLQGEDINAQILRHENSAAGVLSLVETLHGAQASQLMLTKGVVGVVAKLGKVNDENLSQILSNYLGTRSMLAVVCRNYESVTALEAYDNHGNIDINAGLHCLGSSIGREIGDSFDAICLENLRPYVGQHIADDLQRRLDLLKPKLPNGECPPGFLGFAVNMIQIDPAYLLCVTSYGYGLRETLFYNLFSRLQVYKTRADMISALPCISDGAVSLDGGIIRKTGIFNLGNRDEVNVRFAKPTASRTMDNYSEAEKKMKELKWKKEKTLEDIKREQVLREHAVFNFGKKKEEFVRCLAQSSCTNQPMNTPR

SUVR2-Flag (Arabidopsis) [2] = molecular target: T1, SUVR2-Flag (Arabidopsis); assay: co-IP; protein extracts of Arabidopsis transgenic plants (or F1 hybrids with two tagged proteins); precipitated with anti-c-Myc agarose, anti-Flag M1 agarose or anti-AGO4 conjugated agarose; western blotting

In the case of DMS3 (from UniProt Q94A79 1-420), the binding (SUVR2-Flag (Arabidopsis) [1]) is reported as “no binding” and the binding (SUVR2-Flag (Arabidopsis) [2]) is reported as “no binding”.

— paper PMC4260354
